# In PubChem BioAssay AID485344 (National Center for Advancing Translational Sciences (NCATS), 2010):
# Among all 340,000 compounds or so, about 6,900 (2%) were called active. No stated cut-off is given here; in the data, active means inhibition above about 30%; inactive means below that, where a call was filed. The list shows a part of the results, in another mix than the full data. Where no call is shown, the source filed none.
# Biological target: D(2) dopamine receptor (Homo sapiens) (UniProt P14416)
# Assay: HTS Assay for Allosteric Antagonists of the Human D2 Dopamine Receptor: Primary Screen for Antagonists; further: 0% is about no effect
# Conditions: HEK293 TREx D2 cells, calcium flux, dopamine EC80; at 10 µM; stronger effect = higher value
# Procedure, shortened: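 Inhibition of EC80 dopamine-driven calcium flux, recorded kinetically, defines activity here; cells are a tetracycline-induced HEK293 T-REx line expressing force-coupled D2.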
# UniProt P14416, sequence (P14416 whole entry, looked up): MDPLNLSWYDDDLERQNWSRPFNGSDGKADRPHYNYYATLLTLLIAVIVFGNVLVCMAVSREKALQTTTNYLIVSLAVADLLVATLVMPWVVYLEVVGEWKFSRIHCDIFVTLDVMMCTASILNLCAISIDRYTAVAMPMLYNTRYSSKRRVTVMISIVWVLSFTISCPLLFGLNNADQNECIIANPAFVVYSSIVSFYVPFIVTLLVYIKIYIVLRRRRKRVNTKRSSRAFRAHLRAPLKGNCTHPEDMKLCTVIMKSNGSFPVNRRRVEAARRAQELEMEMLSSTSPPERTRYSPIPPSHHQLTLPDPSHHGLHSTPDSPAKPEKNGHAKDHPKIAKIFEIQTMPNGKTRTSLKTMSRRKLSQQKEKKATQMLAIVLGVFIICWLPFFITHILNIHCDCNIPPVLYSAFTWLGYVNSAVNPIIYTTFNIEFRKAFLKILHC
row,SMILES,inhibition
1,COc1ccccc1CNC(=O)CSc1ccc(-c2sc(-c3ccccc3)nc2C)nn1,-15.4%
2,CN(C(=O)CSc1nnc(COc2ccccc2)o1)c1ccccc1,3.9%
3,CCOc1ccc(OCC)c(NC(=O)c2cc3ccccn3n2)c1,4.95%
4,CCC(=O)N1CCc2cc(S(=O)(=O)NC(Cc3ccccc3)C(=O)Nc3ccccc3C)ccc21 (stereo not given),-17.9%
5,O=S(=O)(c1ccc(Cl)cc1)c1nc(-c2ccco2)oc1SCc1ccccc1F,4.61%
6,CCOC(=O)c1c(NC(=O)c2cc(=O)c3cc(C)cc(C)c3o2)sc(C)c1C,6.23%
7,O=C(CSc1nccn1C1CCCC1)Nc1cc(C(F)(F)F)ccc1Cl,7.74%
8,Cc1ccc(-c2nn(CC(=O)NCc3ccccc3)c3c2cnc2ccc(F)cc23)cc1C,-0.815%
9,O=C(c1ccc2c(c1)N(Cc1ccccc1)C(=O)c1ccccc1S2(=O)=O)N1CCc2ccccc21,8.99%
10,COc1ccc(OC)c(-n2c3c(cc(-c4nc(-c5ccc(Cl)cc5)cs4)c2=O)C(=O)CC(C)(C)C3)c1,-2.3%
11,CCCNC(=O)CN1C(=O)COc2ccc(S(=O)(=O)N3CCC(C)CC3)cc21,-0.568%
12,Cc1c(NC(=O)C(C)(C)Oc2ccc(Cl)cc2)cccc1-c1nc2ccccc2o1,-1.04%
13,Cc1ccc(NC(=O)c2ccc(CN3CC(=O)N4CCCCC4C3=O)cc2)c(C)c1 (stereo not given),5.88%
14,COC(=O)c1ccc(NC(=O)CSc2nnc3c4ccccc4n(C(C)C)c3n2)cc1,8.36%
15,COC(=O)c1ccccc1NC(=O)c1nc(-c2ccc(Cl)cc2)n2c1CCCCC2,11.3%
16,Cc1ccc2c(=O)c(C(=O)c3ccc(F)cc3)cn(CC(=O)Nc3ccc4c(c3)OCCO4)c2n1,-0.42%
17,COc1ccc(CNC(=O)CC(c2ccc(OC)cc2)N2Cc3ccccc3C2=O)cc1 (stereo not given),-4.04%
18,OCCCn1c(-c2ccc(F)cc2)csc1=Nc1ccc(F)cc1,-10.4%
19,CC(C)Oc1ccccc1NC(=O)CSc1nccn1C,-7.62%
20,O=C(O)CSc1nc2ccc(NC(=O)COc3ccc(Cl)cc3)cc2s1,-19.6%

row,SMILES,inhibition
1,Cc1ccc(-n2c(=O)c3c(c4cc(C)ccc4n3C)n(CC(=O)c3ccc(Cl)cc3)c2=O)cc1,-4.35%
2,CS(=O)(=O)N(CCc1ccccc1)CC(N)=O,active: 31.3%
3,COc1cc(OC)c(NC2=C(c3ccc(C(F)(F)F)cc3)C(=O)c3ccccc32)cc1Cl,4.56%
4,O=C(Cn1c(=O)nc(-c2ccccc2)c2ccccc21)N1CCN(c2ccc(F)cc2)CC1,-1.1%
5,C=C1C(=O)C=C2CN(C(=O)c3ccccc3)[C@@](Cc3ccc(F)cc3)(C(=O)OC)[C@@H]12,active: 44.1%
6,O=C(CS(=O)(=O)c1cccc2nsnc12)NCc1ccccc1,11.6%
7,COc1cc(NC(=O)C(Cc2ccccc2)NS(=O)(=O)c2cccs2)cc(OC)c1 (stereo not given),13.6%
8,CC(C)C(=O)Nc1nc2c(s1)CC(C(C)(C)C)CC2 (stereo not given),4.97%
9,CCOc1ccc(CNC(=O)Cn2nc(C)c3c(C)n(-c4ccc(C)cc4)nc3c2=O)cc1,5.08%
10,CC(=O)c1ccc(-n2c(CCC(=O)O)ccc2-c2cccs2)cc1,8.86%
11,O=C(CCS(=O)(=O)c1ccccc1)N(Cc1cccnc1)c1nc2ccc(F)cc2s1,23.8%
12,Cc1ccc(C)c(CSc2nnc(C)n3c2cc2sccc23)c1,5.12%
13,COc1ccc(-c2cnc(C)o2)cc1S(=O)(=O)Nc1ccc(OC(F)(F)F)cc1,-11.7%
14,C#CCn1c(=O)n(-c2cccc(Cl)c2C)c(=O)c2c3c(sc21)CN(C(C)=O)CC3,-8.04%
15,Cc1ccc(C)c(N2CCN(CCCNC(=O)c3cnn(-c4ccc(F)cc4)c3C3CCN(C(=O)OC(C)(C)C)CC3)CC2)c1,3.32%
16,Cn1c(SCc2ccccc2)nnc1-c1c[nH]c2ccccc12,active: 35.2%
17,COc1ccc(CNC(=O)C(C)n2nc(C)c3c(C)n(-c4ccccc4)nc3c2=O)c(OC)c1 (stereo not given),1.74%
18,CCc1nn2c(=O)cc(COC(=O)c3ccccc3NC(=O)COc3ccc(C)c(C)c3)nc2s1,16%
19,CCCCn1cc(S(=O)(=O)c2cc(C)ccc2C)c(=O)c2cc(F)c(F)cc21,2.54%
20,Cc1oc(-c2ccccc2F)nc1CN1CCC(C(=O)NCCc2ccccc2)CC1,6.39%

row,SMILES,inhibition
1,CC(C(=O)Nc1ccc(OC(F)(F)F)cc1)N1Cc2ccccc2C1=O (stereo not given),-3.46%
2,Cc1ccc(CNC(=O)Cc2csc3ccccc23)cc1,-8.16%
3,CCOc1ccc(CCNC(=O)CSc2nnnn2-c2ccccc2)cc1OCC,-22%
4,Cc1c(Cl)cccc1-n1ncc(C(=O)NC2CCCCC2)c1C1CCN(C(=O)OC(C)(C)C)CC1,-9.81%
5,CCOC(=O)c1cccc(NC(=O)c2oc3c(c2C)-c2nn(CC)cc2CC3)c1,-22.6%
6,COc1cccc(NC(=O)/C=C/c2ccc(S(=O)(=O)N3CCOCC3)cc2)c1,active: 47.3%
7,COc1ccc(C(=O)COC(=O)c2cc(-c3cccs3)nc3ccccc23)cc1,-24.6%
8,COc1ccc(OC)c(Nc2sc(C(=O)c3ccccc3)c(N)c2S(=O)(=O)c2ccccc2)c1,-1.18%
9,O=C(Cn1ncc2c([nH]c3ccccc32)c1=O)NCCCN1CCN(c2ccccc2)CC1,active: 103%
10,O=c1oc2ccccc2c(N2CCN(c3ccc(F)cc3)CC2)c1CN1CCCC1,-11.4%
11,Cc1cccc(N2CCN(S(=O)(=O)c3cc(C(=O)Nc4ccc(Oc5ccccc5)cc4)ccc3F)CC2)c1C,-13.7%
12,Cc1ccccc1NC(=O)Cn1c(=O)n(CCc2ccccc2)c(=O)c2ccccc21,24.4%
13,CN(Cc1ccccc1)S(=O)(=O)c1ccc(NC(=O)c2cc(=O)c3ccccc3o2)cc1,3.81%
14,CCOc1ccc(/C=C/c2nc(C#N)c(NC(C)c3ccccc3)o2)cc1 (stereo not given),-0.0404%
15,COc1ccc(C)cc1NC(=O)Nc1cccc(OCc2cc(=O)n3ccc(C)cc3n2)c1,-22.3%
16,Cc1ccccc1OCC(=O)NCC(c1ccc(Cl)cc1)N1CCCCC1 (stereo not given),9.6%
17,CC(=O)N1CCc2cc(Br)cc(S(=O)(=O)N3CCC(C(=O)Nc4ccc(C(C)C)cc4)CC3)c21,23.2%
18,CCOC(=O)c1ccc(-n2c(CCC(=O)O)ccc2-c2ccccc2)cc1,-11.9%
19,COc1ccc(C(=O)CC2(O)C(=O)N(Cc3cccc(C(F)(F)F)c3)c3ccccc32)cc1 (stereo not given),4.14%
20,COc1ccc(N2CCN(S(=O)(=O)c3ccc(-c4ccno4)cc3OC)CC2)cc1,9.99%
